# Measurements published in the supplement of paper PMC8728848.
# The list shows a part of the results.
# B1: PX15618B-bfa-464-25-464 (Bacteroides fragilis) (protein)
# chain: DQEPPLYVNENDIFTSPTRIEATLNGLYAAIKNTGTKSLMGGKSYLVFDNRGDDVINISNNLVTLFNTYNMNVGITDAENADTWTYAYLAINKVNTFLQSLEGAREVAGENYDRYVQEAKFVRALAYYYLNNLYPTPYSVNPDAKSVPLRLTAEAGTENNNMPRSTVKQIYEHILSDLENISALDTEVNTYTGVTHATQAAANMLKMRVYMAMNEWDKAITAGELVTGYSLPEDVTLIYKAPYFSQESIFSLPMADTNIPNTQQSLAEYYYDGKIMLIDTKSGIMSKPDYSLATDKRIIAFKGEKDLLMKFTDAKTKLQWVPIFRYAETLLDLAECYANKAGGEATAKSLLKQVRGRSVDAATDPLNIDNLSGDALKEAIYNEKRLEFIGEGIRGIDIMRRGEHFIKVGENETINVGPSDEKYTWPIPQVELLLNKDINK
# What was measured:
# Experiment in all cases: glycan array binding signal (z-score within array); higher = stronger binding
# Details in all cases: glycan notation: IUPAC condensed, linker removed
# [1] = target: Neu5Ac(a2-3)Gal(b1-4)GlcNAc(b1-3)Gal(b1-4)GlcNAc(b1-3)Gal(b1-4)GlcNAc
# Outline: (§1)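 Glycan array binding is given as a within-array Z-score, which can be read as non-binding when negative. The arrays, 3228 of them, came from the Consortium for Functional Glycomics database and were retained only where the protein sequence was available. Z-scores were averaged across arrays of the same protein sequence at different concentrations or buffers and across linkers.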
# [2] = target: Neu5Ac(a2-3)Gal(b1-4)GlcNAc(b1-3)Gal(b1-4)GlcNAc(b1-3)Gal(b1-4)GlcNAc(b1-2)Man(a1-3)[Neu5Ac(a2-3)Gal(b1-4)GlcNAc(b1-3)Gal(b1-4)GlcNAc(b1-3)Gal(b1-4)GlcNAc(b1-2)Man(a1-6)]GalNAc
# Outline: as §1
# [3] = target: Neu5Ac(a2-3)Gal(b1-4)GlcNAc(b1-3)Gal(b1-4)GlcNAc(b1-3)GalNAc
# Outline: as §1
# [4] = target: Neu5Ac(a2-3)Gal(b1-4)GlcNAc(b1-3)Gal(b1-4)GlcNAc(b1-3)[Neu5Ac(a2-3)Gal(b1-4)GlcNAc(b1-3)Gal(b1-4)GlcNAc(b1-6)]GalNAc
# Outline: as §1
# [5] = target: Neu5Ac(a2-3)Gal(b1-4)GlcNAc(b1-3)Gal(b1-4)GlcNAc(b1-6)[Gal(b1-3)]GalNAc
# Outline: as §1
# [6] = target: Neu5Ac(a2-3)Gal(b1-4)GlcNAc(b1-3)Gal(b1-4)[Fuc(a1-3)]GlcNAc
# Outline: as §1
# [7] = target: Neu5Ac(a2-3)Gal(b1-4)GlcNAc(b1-3)GalNAc
# Outline: as §1
# [8] = target: Neu5Ac(a2-3)Gal(b1-4)GlcNAc(b1-3)[Neu5Ac(a2-3)Gal(b1-4)GlcNAc(b1-6)]GalNAc
# Outline: as §1
# [9] = target: Neu5Ac(a2-3)Gal(b1-4)GlcNAc(b1-6)GalNAc
# Outline: as §1
# [10] = target: Neu5Ac(a2-3)Gal(b1-4)GlcNAc(b1-6)[Gal(b1-3)]GalNAc
# Outline: as §1
# [11] = target: Neu5Ac(a2-3)Gal(b1-4)GlcNAc(b1-6)[Neu5Ac(a2-3)Gal(b1-3)]GalNAc
# Outline: as §1
# [12] = target: Neu5Ac(a2-3)Gal(b1-4)GlcNAc6S
# Outline: as §1
# [13] = target: Neu5Ac(a2-3)Gal(b1-4)[Fuc(a1-3)]GlcNAc
# Outline: as §1
# [14] = target: Neu5Ac(a2-3)Gal(b1-4)[Fuc(a1-3)]GlcNAc(b1-2)Man
# Outline: as §1
# [15] = target: Neu5Ac(a2-3)Gal(b1-4)[Fuc(a1-3)]GlcNAc(b1-3)Gal
# Outline: as §1
# [16] = target: Neu5Ac(a2-3)Gal(b1-4)[Fuc(a1-3)]GlcNAc(b1-3)Gal(b1-4)GlcNAc
# Outline: as §1
# [17] = target: Neu5Ac(a2-3)Gal(b1-4)[Fuc(a1-3)]GlcNAc(b1-3)Gal(b1-4)[Fuc(a1-3)]GlcNAc(b1-3)Gal(b1-4)[Fuc(a1-3)]GlcNAc
# Outline: as §1
# [18] = target: Neu5Ac(a2-3)Gal(b1-4)[Fuc(a1-3)]GlcNAc(b1-3)GalNAc
# Outline: as §1
# [19] = target: Neu5Ac(a2-3)Gal(b1-4)[Fuc(a1-3)]GlcNAc(b1-6)[Gal(b1-3)]GalNAc
# Outline: as §1
# [20] = target: Neu5Ac(a2-3)Gal(b1-4)[Fuc(a1-3)]GlcNAc(b1-6)[Neu5Ac(a2-3)Gal(b1-3)]GalNAc
# Outline: as §1
# [21] = target: Neu5Ac(a2-3)Gal(b1-4)[Fuc(a1-3)]GlcNAc6S
# Outline: as §1
# [22] = target: Neu5Ac(a2-3)Gal6S(b1-4)GlcNAc
# Outline: as §1
# [23] = target: Neu5Ac(a2-3)Gal6S(b1-4)[Fuc(a1-3)]GlcNAc
# Outline: as §1
# [24] = target: Neu5Ac(a2-3)GalNAc
# Outline: as §1
# [25] = target: Neu5Ac(a2-3)GalNAc(b1-4)GlcNAc
# Outline: as §1
# [26] = target: Neu5Ac(a2-3)[GalNAc(b1-4)]Gal(b1-4)Glc
# Outline: as §1
# [27] = target: Neu5Ac(a2-3)[GalNAc(b1-4)]Gal(b1-4)GlcNAc
# Outline: as §1
# [28] = target: Neu5Ac(a2-3)[GalNAc(b1-4)]Gal(b1-4)GlcNAc(b1-3)GalNAc
# Outline: as §1
# [29] = target: Neu5Ac(a2-3)[Neu5Ac(a2-6)]GalNAc
# Outline: as §1
# [30] = target: Neu5Ac(a2-6)Gal
# Outline: as §1
# [31] = target: Neu5Ac(a2-6)Gal(b1-3)GlcNAc(b1-3)[Gal(b1-4)GlcNAc(b1-6)]Gal(b1-4)Glc
# Outline: as §1
# [32] = target: Neu5Ac(a2-6)Gal(b1-4)Glc
# Outline: as §1
# [33] = target: Neu5Ac(a2-6)Gal(b1-4)GlcNAc
# Outline: as §1
# [34] = target: Neu5Ac(a2-6)Gal(b1-4)GlcNAc(b1-2)Man
# Outline: as §1
# [35] = target: Neu5Ac(a2-6)Gal(b1-4)GlcNAc(b1-2)Man(a1-3)Man(b1-4)GlcNAc(b1-4)GlcNAc
# Outline: as §1
# [36] = target: Neu5Ac(a2-6)Gal(b1-4)GlcNAc(b1-2)Man(a1-3)[Gal(b1-4)GlcNAc(b1-2)Man(a1-6)]Man(b1-4)GlcNAc(b1-4)GlcNAc
# Outline: as §1
# [37] = target: Neu5Ac(a2-6)Gal(b1-4)GlcNAc(b1-2)Man(a1-3)[GlcNAc(b1-2)Man(a1-6)]Man(b1-4)GlcNAc(b1-4)GlcNAc
# Outline: as §1
# [38] = target: Neu5Ac(a2-6)Gal(b1-4)GlcNAc(b1-2)Man(a1-3)[GlcNAc(b1-4)][Neu5Ac(a2-6)Gal(b1-4)GlcNAc(b1-2)Man(a1-6)]Man(b1-4)GlcNAc(b1-4)GlcNAc
# Outline: as §1
binder,measurement,setting,value
B1,glycan array binding signal (z-score),[1],-0.223
same,glycan array binding signal (z-score),[2],3.29
same,glycan array binding signal (z-score),[3],-0.439
same,glycan array binding signal (z-score),[4],0.164
same,glycan array binding signal (z-score),[5],0.194
same,glycan array binding signal (z-score),[6],-0.466
same,glycan array binding signal (z-score),[7],-0.321
same,glycan array binding signal (z-score),[8],-0.275
same,glycan array binding signal (z-score),[9],-0.278
same,glycan array binding signal (z-score),[10],0.439
same,glycan array binding signal (z-score),[11],-0.318
same,glycan array binding signal (z-score),[12],-0.084
same,glycan array binding signal (z-score),[13],-0.46
same,glycan array binding signal (z-score),[14],-0.417
same,glycan array binding signal (z-score),[15],-0.393
same,glycan array binding signal (z-score),[16],-0.434
same,glycan array binding signal (z-score),[17],-0.12
same,glycan array binding signal (z-score),[18],0.124
same,glycan array binding signal (z-score),[19],-0.597
same,glycan array binding signal (z-score),[20],0.089
same,glycan array binding signal (z-score),[21],-0.804
same,glycan array binding signal (z-score),[22],-0.187
same,glycan array binding signal (z-score),[23],-0.819
same,glycan array binding signal (z-score),[24],0.178
same,glycan array binding signal (z-score),[25],-0.311
same,glycan array binding signal (z-score),[26],-0.259
same,glycan array binding signal (z-score),[27],-0.608
same,glycan array binding signal (z-score),[28],0.625
same,glycan array binding signal (z-score),[29],-0.496
same,glycan array binding signal (z-score),[30],-0.353
same,glycan array binding signal (z-score),[31],-0.4
same,glycan array binding signal (z-score),[32],-0.015
same,glycan array binding signal (z-score),[33],-0.437
same,glycan array binding signal (z-score),[34],-0.392
same,glycan array binding signal (z-score),[35],-0.143
same,glycan array binding signal (z-score),[36],-0.017
same,glycan array binding signal (z-score),[37],0.22
same,glycan array binding signal (z-score),[38],0.17
